This note sets out measurements from PMC4336329 (PLoS ONE, 2015).

Out of some 310,000 compounds screened, about 14,000 (4.5%) showed an effect of 50% or more. The effect is printed as a negative number. The list shows a part of the results.
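Further: peak tail current of the secondary pulse compared with the same well before compound.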

Chain of human ether-à-go-go-related gene (hERG) potassium channel (Q12809 whole entry, looked up): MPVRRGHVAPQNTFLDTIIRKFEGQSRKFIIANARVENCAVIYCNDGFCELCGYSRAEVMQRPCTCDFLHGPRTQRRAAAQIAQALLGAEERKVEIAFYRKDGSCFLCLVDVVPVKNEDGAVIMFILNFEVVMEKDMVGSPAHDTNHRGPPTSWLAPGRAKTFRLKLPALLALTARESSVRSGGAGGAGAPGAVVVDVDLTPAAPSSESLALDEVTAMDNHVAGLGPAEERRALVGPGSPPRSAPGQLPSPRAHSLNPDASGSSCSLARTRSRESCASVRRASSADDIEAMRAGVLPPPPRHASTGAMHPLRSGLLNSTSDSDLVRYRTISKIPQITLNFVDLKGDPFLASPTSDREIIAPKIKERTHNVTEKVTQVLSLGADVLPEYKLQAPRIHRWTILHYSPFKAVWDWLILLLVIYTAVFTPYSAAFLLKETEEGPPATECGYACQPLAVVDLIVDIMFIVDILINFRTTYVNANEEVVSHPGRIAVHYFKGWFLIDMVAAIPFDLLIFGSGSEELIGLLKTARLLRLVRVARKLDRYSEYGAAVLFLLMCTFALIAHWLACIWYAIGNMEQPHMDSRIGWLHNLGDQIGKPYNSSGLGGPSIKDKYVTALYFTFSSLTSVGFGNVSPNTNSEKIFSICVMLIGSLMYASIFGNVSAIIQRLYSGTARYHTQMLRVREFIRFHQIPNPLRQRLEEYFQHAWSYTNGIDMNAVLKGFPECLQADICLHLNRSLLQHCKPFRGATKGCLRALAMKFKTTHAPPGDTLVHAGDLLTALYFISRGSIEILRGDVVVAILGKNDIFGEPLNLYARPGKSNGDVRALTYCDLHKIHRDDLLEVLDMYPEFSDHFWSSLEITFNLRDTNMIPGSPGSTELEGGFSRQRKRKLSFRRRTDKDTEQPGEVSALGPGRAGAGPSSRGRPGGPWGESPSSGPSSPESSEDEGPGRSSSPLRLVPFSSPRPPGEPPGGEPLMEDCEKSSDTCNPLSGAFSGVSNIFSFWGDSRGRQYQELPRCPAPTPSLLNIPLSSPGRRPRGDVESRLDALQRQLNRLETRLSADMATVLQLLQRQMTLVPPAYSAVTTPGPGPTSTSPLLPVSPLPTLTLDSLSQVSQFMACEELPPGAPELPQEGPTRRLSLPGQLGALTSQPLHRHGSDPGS

This test addresses human ether-à-go-go-related gene (hERG) potassium channel (human, UniProt Q12809). As to the kind of experiment: primary screen, population patch clamp on CHO cells stably expressing hERG.
On to `O=C(CNC(=O)/C(=C\c1ccccc1)NC(=O)c1ccc(Br)cc1)OCc1ccccc1`, for which the “hERG current change (%, negative = inhibition) at 10uM” value is -69.1%. The same measure for `O=C(COc1ccc(Cl)cc1)c1ccc(O)cc1O`: -8.7%. In the case of `COC(=O)CC1C(=O)NC2CCCCC2N1C(=O)c1ccccc1` (stereo not shown) it was 3.2%; in that of `Cc1c(C)c2cc(Cl)c(O)c(CN3CCN(C)CC3)c2oc1=O`, -0.384%. The same measure for `Cc1cc(C)n(-c2ccc(C(=O)N3CCN(S(=O)(=O)c4ccc(Cl)cc4)CC3)cc2)n1`: -25.8%. Consider `O=C(O)CNC(=S)N(Cc1ccccc1Cl)C1CCCC1`, for which the “hERG current change (%, negative = inhibition) at 10uM” value is 16.2%. The same measure for `COC(=O)c1ccc(NC(=O)CSc2nnc(C(C)NC(=O)c3ccccc3Cl)n2C)cc1` (stereo not shown): 8.51%; for `Cc1ccc2nc(Nc3ccc(C)c(C)c3)c3nncn3c2c1`: 14.5%. As for `CCCCOc1ccc(C(C)NC(=O)C2CCCN(S(=O)(=O)CCC)C2)cc1` (stereo not shown), the “hERG current change (%, negative = inhibition) at 10uM” value is -0.162%. In the case of `Cc1cnc(CN2CCc3c([nH]c4ccccc34)C2CC(C)C)[nH]1` (stereo not shown) it was -45.1%; in that of `Cc1ccc(NC(=O)COC(=O)CN2CCCCCC2=O)c(C)c1`, -13.1%; in that of `Cc1ccc(NC(=O)CNCc2ccccn2)cc1S(=O)(=O)N(C)C`, 20.9%. The same measure for `O=S(=O)(c1ccc(F)cc1)N1CCc2ccccc2C1`: 1.03%. The same measure for `CCCCc1nc2sc3c(SCCN(C)C)ncnc3c2c2c1CCC2`: 10.4%.

Regarding `O=C(Nc1ccc2c(c1)OCO2)C1CCN(S(=O)(=O)c2cccs2)CC1`, the “hERG current change (%, negative = inhibition) at 10uM” value is reported as -8.65%. In the case of `COc1ccc(CCNC(=O)COC(=O)C23CC4CC(CC(Br)(C4)C2)C3)cc1` it was 7.64%.

With `CC(C)c1nc2oc3c(=O)[nH]cnc3c2c2c1COC(C)(C)C2`, the “hERG current change (%, negative = inhibition) at 10uM” value stood at 5.89%.

Take `Cc1ccccc1-c1nsc(SCC(=O)Nc2ccc3c(c2)OCO3)n1`: the “hERG current change (%, negative = inhibition) at 10uM” value came out at 25.7%.

For the compound `Cc1cc(=O)oc(C)c1C(=O)NCc1cccnc1`, the “hERG current change (%, negative = inhibition) at 10uM” value stood at 6.68%. Turning to `COC(=O)C1=COC(C)C2CN3CCC4(C(=O)Nc5ccccc54)C3CC12` (stereo not shown), the “hERG current change (%, negative = inhibition) at 10uM” value is recorded as -5.81%.

Consider `Nc1ccccc1SC1CC(=O)N(c2ccc(Cl)c(Cl)c2)C1=O` (stereo not shown), for which the “hERG current change (%, negative = inhibition) at 10uM” value was 17.5%.

As to `O=C1CCCN1CC1CCN(Cc2nc(CC3CC3)no2)CC1`, the “hERG current change (%, negative = inhibition) at 10uM” value is -0.629%. In the case of `Cc1ccccc1CCNC(=O)CCn1ccc2cc(S(=O)(=O)N3CCCC3)ccc21` it was -20.3%; in that of `CCOc1ccc(C2N(c3ccc(F)cc3)C(=O)C3CCCN32)cc1` (stereo not shown), 7.56%; in that of `O=C(c1ccc(Cl)cc1)N1CCn2c1nc1ccccc12`, -11.8%.
